Our source for the displacement values is PubChem BioAssay AID1240 (Sanford-Burnham Center for Chemical Genomics, 2008).

The campaign covered roughly 50,000 compounds. About 800 (1.6%) showed an effect of 50% or more. The list shows a part of the results.

The target in this test is Bcl-2-like protein 10 (Homo sapiens) (UniProt Q9HD36). Put plainly: TR3 peptide-Bcl-B binding displacers, biochemical primary FP assay, phenotype converters (AID 1240).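 Also: 0% = Bcl-B with tracer peptide and DMSO and 100% = tracer peptide lacking Bcl-B.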 The following applies: GST-Bcl-B / FITC-TR3 peptide fluorescence polarization; stronger effect = higher value; compound at 3.75 mg/L.
Chain of UniProt Q9HD36 (Q9HD36 whole entry, looked up): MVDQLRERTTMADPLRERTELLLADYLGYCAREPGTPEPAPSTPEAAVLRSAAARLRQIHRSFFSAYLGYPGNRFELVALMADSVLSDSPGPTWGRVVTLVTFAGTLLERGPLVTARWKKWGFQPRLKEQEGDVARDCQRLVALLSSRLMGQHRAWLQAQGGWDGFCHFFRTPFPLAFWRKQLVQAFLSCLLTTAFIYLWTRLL
`CCc1cccc(C)c1NC1C=CS(=O)(=O)C1` (centres undefined): the displacement was 52.3%. For `O=C(CCCOc1ccc(Cl)c(Cl)c1)Nc1cccc2ccccc12`, the displacement was -2.7%. For the compound `COc1cc(/C=N/n2c(C)nnc2C)cc(OC)c1O`, the displacement was -5.2%. Consider `CC(=O)NC1=NC(=O)/C(=C\c2cccc([N+](=O)[O-])c2)S1`, for which the displacement was -42.2%.

For `COC(=O)C(C)Oc1cc2oc(=O)c3c(c2cc1Cl)CCC3` (centres undefined), the displacement came to 7.8%.

As to `O=C(O)CP(=O)(c1ccccc1)c1ccccc1`, the displacement was -1.7%. For the compound `Cc1ccc(C(=O)N2CCC(Cc3ccccc3)CC2)o1`, the displacement was 6.7%. For the compound `CCCCOC(=O)CCN1C(=O)/C(=C/c2ccc3c(c2)OCO3)SC1=S`, the displacement amounted to 6.9%. In the case of `COc1ccccc1/C=C1\C(=O)Nc2ccccc21`, the displacement came to 7.9%. Regarding `CCOC(=O)c1c(NC(=O)CN2CCN(C)CC2)sc2c1CCN(C(=O)OCC)C2`, the displacement amounted to 2.2%. Consider `CCC(=O)Nc1ccc(S(=O)(=O)N2CCCCCC2)cc1`, for which the displacement worked out at 6.5%. The figure for `CCN1C(=O)/C(=C/c2ccc(OC(=O)c3ccc(F)cc3)c(OC)c2)SC1=S` is -7.2%.

In the case of `CCc1ccc(/C=C2/C(=O)NC(=O)N(c3cccc(C)c3)C2=O)cc1`, the displacement was -8.7%. As for `Cc1ccc(CNC(=O)C(=O)NCc2ccccc2)cc1`, the displacement was determined as 7.7%. Consider `Clc1ccc(OCCCN2CCCC2)cc1`, for which the displacement came to 11.6%.

Consider `CC(C)CC(=O)Nc1ccc(F)c([N+](=O)[O-])c1`, for which the displacement turned out to be 1.2%. To `Cc1cc2nc3n(c2cc1C)CCN3` belongs -8.8%; to `COc1ccc(S(=O)(=O)NNC(=O)c2cccc(Br)c2)cc1`, 1.4%.

As to `Cc1ccc(N2CN=C(c3ccccc3)NC2=S)cc1`, the displacement came out at 14.2%. As to `Nc1nnc(CC(=O)N/N=C/c2ccc(Cl)cc2Cl)s1`, the displacement was 40.9%. On to `Cc1ccc(NC(=O)c2cccs2)cc1`, for which the displacement was 7.6%.

`CC(NC(=O)CN(c1cccc(C(F)(F)F)c1)S(C)(=O)=O)c1ccccc1` (centres undefined): the displacement stood at 0.7%. Regarding `Cc1ccc(C(=O)Nc2cccc(O)c2)cc1S(=O)(=O)N1CCCCC1`, the displacement was -14.1%. To `COc1ccc(-c2nnc(-c3sc4cc(C)ccc4c3Cl)o2)cc1` belongs -3.8%; to `O=C(c1ccc(F)cc1)c1ccc(N2CCOCC2)cc1`, 3.9%; to `CC(=O)Nc1cccc(NC(=O)c2ccccc2[N+](=O)[O-])c1`, -0.5%.

Take `CCOC(=O)C12CC3CC(C1)CC(C(=O)OCC)(C3)C2`: the displacement is -7.4%.

For `O=C(NC1CCS(=O)(=O)C1)/C(NC(=O)c1ccccc1)=C(/Sc1ccccn1)c1ccccc1` (centres undefined), the displacement came to 8.5%. To `Cc1cccc(C(=O)O/N=C(\c2ccncc2)c2ccc([N+](=O)[O-])cc2)c1` belongs 4.4%; to `Cc1ccc(-c2cc(C(F)(F)F)n3ncnc3n2)cc1`, 2.3%. The figure for `COC(=O)c1cc(NC(=O)C(C)Oc2ccccc2)cc(C(=O)OC)c1` (centres undefined) is 4.6%; for `CC(Oc1ccccc1)C(=O)Nc1cc(C(=O)Nc2ccccc2)ccc1Cl` (centres undefined) it is 1.2%. For the compound `Cc1ccc(C(=O)/C=C/c2ccc(-c3ccc(Cl)cc3)o2)cc1`, the displacement was 17.9%. Take `O=[N+]([O-])c1ccc(OCC(O)CNc2ccccc2)cc1` (centres undefined): the displacement is 2.4%. For `CCOC(=O)c1c(-c2ccc(OC)cc2)csc1NC(=O)c1ccccc1Br`, the displacement is -0.3%. Take `O=[N+]([O-])c1ccc(OCCN2CCOCC2)cc1`: the displacement worked out at 10.1%. To `CC(C)(C)NC(=O)CN(Cc1ccccc1)S(=O)(=O)c1ccc(Br)cc1` belongs 1.1%. Consider `CCOc1ccccc1NC(=O)c1c(NC(=O)COc2ccccc2)sc2c1CCC(C)C2` (centres undefined), for which the displacement was -4.5%. For `Cc1c(NC(=O)c2ccc(Cl)c(Cl)c2)c(=O)n(-c2ccccc2)n1C`, the displacement came to 13.2%. The figure for `COc1ccc(/C=C2\SC(=S)N(NC(=O)c3ccccc3C)C2=O)cc1` is -9.5%. The figure for `Nc1nc(-c2ccc(Cl)cc2)c(-c2ccc([N+](=O)[O-])cc2)s1` is 5.6%. Consider `Cc1ccc2nsnc2c1NC(=O)S(=O)(=O)c1ccccc1`, for which the displacement is 6.6%. As for `CCCN1C(=O)c2ccccc2NC1c1ccc2c(c1)OCO2` (centres undefined), the displacement came out at 19.7%. To `CC1(C)CC(=O)c2nc(NC(=O)Cc3ccc(Cl)cc3)ncc2C1` belongs -1%; to `COc1ccc(CCNC(=S)Nc2cccc(C(F)(F)F)c2)cc1OC`, 0.9%; to `Cc1c(C#N)c2nc[nH]c(=O)c2n1-c1ccccc1`, -5.2%. The figure for `O=S(=O)(Cc1ccccc1)CC(O)COCc1ccccc1` (centres undefined) is 13.2%; for `Cn1c(=O)c([N+](=O)[O-])c(N2CCN(c3ccccn3)CC2)c2ccccc21` it is 2.2%; for `CCCC(NC(=O)c1ccccc1)C(=O)OCC(=O)Nc1nc2ccc(OC)cc2s1` (centres undefined) it is 13.8%. To `CCc1ccc(CNCc2ccccc2OC)cc1` belongs -20%; to `CC(C)=CCC(C)(C)CN(C=O)CC(C)(C)CC=C(C)C`, -11.8%.

Consider `Cc1cc(=O)oc2c(C)c(O)c([N+](=O)[O-])cc12`, for which the displacement is -2.7%.

For the compound `COc1ccc(/C=N/S(=O)(=O)c2cccs2)cc1`, the displacement came out at 6.8%. Regarding `O=C(Nc1ncccn1)c1ccc(Cl)s1`, the displacement was found to be 5.4%. To `O=C(Nc1ccc2c(c1)OCO2)c1nn2c(c1Cl)NC(c1cccs1)CC2C(F)(F)F` (centres undefined) belongs 1.1%; to `Nc1ccc(S(=O)(=O)O)c2cccc(O)c12`, 1.8%; to `COc1ccc(CNc2cc([N+](=O)[O-])ccc2OC)c(OC)c1`, -1.4%. Regarding `CCN1CCN(S(=O)(=O)c2c(C)cc(C)cc2C)CC1`, the displacement was -3.8%. The figure for `Brc1ccccc1/C=N\N1CCN(c2ccccc2)CC1` is -13.8%. As to `CN1CCN(C(=O)c2ccccc2NC(=O)Cc2ccccc2)CC1`, the displacement is -7.6%. In the case of `COc1cc(/C=N/Nc2nc(N3CCCCC3)nc(N3CCCCC3)n2)cc(Cl)c1O`, the displacement was 1.2%. To `Cc1ccc(NC(=O)CN(c2cccc([N+](=O)[O-])c2)S(=O)(=O)c2ccccc2)cc1Cl` belongs 7.5%. To `Clc1ccc(C=NN2CCN(Cc3ccccc3Cl)CC2)c(Cl)c1` belongs -4.6%; to `Cc1ccc(C(=O)/C=C(/N)C(F)(F)F)cc1`, 11%; to `O=C(COc1ccccc1[N+](=O)[O-])Nc1ccc(OC(F)(F)F)cc1`, 3.8%.

Regarding `O=C(Nc1ccc(S(=O)(=O)N2CCc3ccccc32)cc1)c1ccc(Cl)cc1`, the displacement came to 0.8%. On to `Cc1cc(C)c(NC(=O)c2c(-c3ccccc3Cl)noc2C)c(C)c1`, for which the displacement worked out at 4.2%. To `COc1ccc(NC(=O)Nc2ccc(Cc3ccncc3)cc2)cc1` belongs 4.9%; to `O=C(CCCN1C(=O)/C(=C\c2cccc(Br)c2)SC1=S)Nc1ccc(C(=O)O)cc1`, 13.2%; to `CCOC(=O)CSc1nc(N)c2c3c(sc2n1)CCCCC3`, -4.6%. For the compound `COc1ccc2c(c1)-c1c(sn(-c3ccc(Br)cc3)c1=S)C(C)(C)N2`, the displacement was 3.4%.

Take `CC(NC(=O)CN1CCOCC1)C1CC1` (centres undefined): the displacement turned out to be 4.8%.

For `Cc1ccccc1/C=N/Nc1ccc([N+](=O)[O-])cc1`, the displacement is -11%. The figure for `COc1ccc2c(c1C)CCC/C2=N\OC(=O)c1ccccc1F` is -3.4%; for `CCOc1ccc(S(=O)(=O)NCc2ccco2)c2ccccc12` it is 5.4%. The figure for `O=C(c1ccc2c(c1)OCO2)N1CCN(c2ccc(Cl)cc2)CC1` is 11%; for `Cc1cccc(OCC(=O)NC(C)C)c1` it is -5.2%; for `COc1ccc(C2CC(=O)CC(c3ccc(OC)cc3)S2)cc1` (centres undefined) it is -1.2%. To `O=C(Cc1ccc([N+](=O)[O-])cc1)N/N=C/c1ccccn1` belongs -5.2%. With `O=C(N/N=C/c1ccc(O)c(O)c1)c1cccc(F)c1`, the displacement was -6.6%. The figure for `CCOc1ccccc1C1C(C(=O)Nc2ccccc2OC)=C(C)NC2=C1C(=O)CC(C)(C)C2` (centres undefined) is 0%; for `COc1ccc(NC(=O)c2cccc(F)c2)cc1OC` it is -9%. The figure for `Cc1sc(/C=C(/C#N)C(N)=S)cc1Br` is -1.4%; for `CC(=O)NCC1OCCc2ccccc21` (centres undefined) it is -0.3%.

On to `COc1ccc2nc(NC(=O)c3ccccc3[N+](=O)[O-])sc2c1`, for which the displacement stood at 16%. With `COc1ccc(N2CC(C(=O)N/N=C/c3cc([N+](=O)[O-])ccc3O)CC2=O)cc1` (centres undefined), the displacement was -9.6%.

Regarding `COc1cc(-c2nc3ccccn3c2/N=C/c2cc3c(cc2[N+](=O)[O-])OCO3)ccc1O`, the displacement amounted to 10%.

In the case of `CC(=O)/C=C1/SCC(=O)N1c1ccccc1`, the displacement was -2.8%.

Regarding `CC(C)c1ccc(-c2cc(C(=O)NCCN3CCOCC3)c3ccccc3n2)cc1`, the displacement is -6.9%. The figure for `COc1ccc(OC)c(/C=N/n2nnnc2N)c1` is 12.7%. `NC1=NC(=O)/C(=C/c2cc(Cl)c(OCc3ccccc3)c(Cl)c2)S1`: the displacement was 12.1%. Consider `Cc1cccc(OCC(=O)Nc2ccc(Cl)cc2C(F)(F)F)c1`, for which the displacement is 0%. To `COc1ccc(Cl)cc1C(=O)NCC(C)C` belongs -5.8%. To `O=C(c1ccc(Cl)cc1)N1CCN(c2ccc([N+](=O)[O-])c(NCc3ccccc3)c2)CC1` belongs -4.6%; to `Cc1ccccc1/C=C1\SC(=S)N(Cc2ccccc2)C1=O`, 32.3%. To `CC(=O)Nc1ccc(S(=O)(=O)N(CCc2ccccc2)CC(=O)O)cc1` belongs -18.1%. Take `O=C(O)CCN1C(=O)/C(=C/c2cn(-c3ccccc3)nc2-c2ccccc2)SC1=S`: the displacement was determined as 2.5%. `COC(=O)c1ccc(C(=O)OC)c(NC(=O)COc2ccccc2[N+](=O)[O-])c1`: the displacement was 66.9%.

Turning to `CCc1ccc(S(=O)(=O)Nc2ccc(NC(C)=O)cc2)cc1`, the displacement is -7.9%.

Regarding `CCCCOc1ccc(NC2=NC3(CCCCC3)N=C(N)N2)cc1`, the displacement is -10%. The figure for `C=CCOc1ccc2c(OC)c3ccoc3nc2c1OC` is -2.7%; for `Cc1ccc2nc(-c3cc(NC(=O)c4cccs4)ccc3Cl)oc2c1` it is 2%; for `CCn1cc(C(=O)NN)c(=O)c2cc(F)c(N3CCOCC3)cc21` it is 22.2%. The figure for `CC(C)c1ccc(/C=N/n2cnnc2)cc1` is 5.8%; for `CCN(CC)CCOc1ccccc1Cl` it is 2.7%. To `CCOC(=O)C1=C(C)N(c2ccccc2)C(=O)C1CC(=O)Nc1ccc(C)cc1C` (centres undefined) belongs -3.5%; to `O=C(Nc1cccc(F)c1)Nc1cccc(NC(=O)Nc2cccc(F)c2)c1`, 3%; to `CC(c1ccccc1)c1nnc(NC(=O)c2cccs2)s1` (centres undefined), -3%. For the compound `Cc1ccc2cc(C3CC(c4ccc(Br)cc4)=NN3C(=O)CCC(=O)O)c(=O)[nH]c2c1` (centres undefined), the displacement is 14%.

For `CC(C)(C)C(=O)Nc1ccc(C(=O)Nc2ccc(O)cc2C(=O)O)cc1`, the displacement worked out at 7.6%. `O=C(CCCN1C(=O)/C(=C\c2cccs2)SC1=S)NC12CC3CC(CC(C3)C1)C2`: the displacement was 9.2%. The figure for `CCc1ccccc1OCCN(CC)CC` is 7%; for `O=[N+]([O-])c1c(NC2CC2)ncnc1NC1CC1` it is 10.9%. The figure for `Cc1ccccc1NC(=O)/C(=C\c1cccs1)NC(=O)c1ccc(C(C)(C)C)cc1` is 16.9%.
